# Measured values reported in the supplement of paper PMC3724861.
# The other results are listed elsewhere or left out.
# Test system: T1, Caupolican (Caup) homeodomain DNA-binding domain
# T1 sequence: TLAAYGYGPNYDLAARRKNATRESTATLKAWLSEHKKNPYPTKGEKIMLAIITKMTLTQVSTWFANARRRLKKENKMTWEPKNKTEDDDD
# Assay: PBM E-score (8-mer, recovered from the published 9-mer minima) (E-score (dimensionless, -0.5 to 0.5)); Drosophila protein; higher = stronger relative binding preference, active = 0.31 or more
# Procedure, shortened: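 Caup's homeodomain DNA-binding domain (residues 214-303) was made by in vitro transcription and translation and applied at 100 nM to custom-designed protein binding microarrays. Each value is an enrichment score that gives relative binding preference for a short DNA word, with higher meaning stronger. The 8-mer values were recovered from published 9-mer scores, each of which was the minimum of its two constituent 8-mer scores. A cutoff of 0.31 marks candidate sites.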
row,Sequence,PBM E-score
1,TGCGCCAA,inactive: -0.179
2,GGAAAGAA,inactive: -0.0877
3,ATGGTATA,inactive: 0.167
4,ACTGGGTC,inactive: -0.127
5,TGGCGCCA,inactive: -0.205
6,ATAACATC,active: 0.318
7,ACTACGCC,inactive: -0.114
8,CAATAGCA,inactive: 0.0185
9,CCCCTTAC,inactive: -0.119
10,AATTTACA,active: 0.328
11,AGTATACG,inactive: 0.0742
12,GTAATAGA,inactive: 0.151
13,ATTCTAAC,inactive: 0.113
14,AAAGAAAA,inactive: -0.0119
15,CGTCTCAA,inactive: -0.009
16,GCTTACGA,inactive: 0.00243
17,TAGATATA,inactive: 0.143
18,AGCCAGTA,inactive: -0.0899
19,AAATAAAA,inactive: 0.132
20,ACATTCAG,inactive: 0.00864
21,ATGATTAC,inactive: 0.211
22,CTTACCAC,inactive: 0.0149
23,GAGGAATC,inactive: -0.0831

row,Sequence,PBM E-score
1,AATACAAC,inactive: 0.305
2,AATAACCA,inactive: 0.0894
3,AGTCGGCC,inactive: -0.211
4,GGGTTTAA,inactive: 0.0764
5,CGCACGGC,inactive: -0.153
6,ATATAAAC,inactive: 0.228
7,GTCGGTAA,inactive: 0.0705
8,AGACAGCG,inactive: 0.00224
9,TCGGGCAA,inactive: -0.0851
10,GTTGCGAA,inactive: 0.0156
11,ACGCAAAT,inactive: 0.07
12,CGTGAAAC,inactive: -0.0302
13,GTGAGGAA,inactive: -0.0469
14,ACAATGAT,inactive: 0.193
15,CGACTTGC,inactive: -0.0587
16,TACAGCTA,inactive: 0.106
17,TCCACGAA,inactive: 0.04
18,CCCCACGA,inactive: -0.225
19,CATGAGGA,inactive: 0.0255
20,GACATTAA,inactive: 0.275
21,CCGTGCCC,inactive: -0.112
22,AGCTCCTC,inactive: -0.157
23,AACGATGC,inactive: -0.051

row,Sequence,PBM E-score
1,ATGTTGAA,inactive: 0.25
2,CTCAATGC,inactive: -0.0912
3,AGTTTCAA,inactive: 0.0314
4,AAACGAGT,inactive: 0.109
5,CGAAGGGC,inactive: -0.266
6,CCCAATTA,inactive: 0.0418
7,GAAGTGAC,inactive: 0.0523
8,CCACATGA,inactive: 0.124
9,AAAATATG,inactive: 0.152
10,GAAACGAA,inactive: 0.0205
11,CGGGACTA,inactive: -0.125
12,CTCACGTC,inactive: -0.0461
13,ACAGGATC,inactive: 0.0378
14,CGTGTGTC,inactive: 0.206
15,ATGCTTCG,inactive: 0.00705
16,GCCAATTA,inactive: 0.0901
17,ACGTTTAG,inactive: 0.0756
18,CTACAGGA,inactive: 0.245
19,CGGGCTCC,inactive: -0.283
20,AAATGATC,inactive: 0.0408
21,CAGGACCG,inactive: -0.129
22,CGGGCGGA,inactive: -0.231
23,AAAGATAA,inactive: 0.105

row,Sequence,PBM E-score
1,GGCCTTAC,inactive: -0.0957
2,ACCCTATA,inactive: -0.0217
3,ATTCCATC,inactive: 0.0883
4,AGGAAACT,inactive: 0.025
5,GGATGCGA,inactive: -0.0849
6,CTTATCAC,inactive: 0.0804
7,AAGAATTA,inactive: 0.112
8,GAAAGTCA,inactive: 0.00612
9,AAAGCCCA,inactive: -0.136
10,ATGATAGC,≥ 0.11
11,CAAAATTC,inactive: 0.144
12,CATCCCCG,inactive: -0.0904
13,GTCTAGAA,inactive: -0.0258
14,TATTTAGA,inactive: 0.125
15,CTGAAGGC,inactive: -0.235
16,ACCCGGAA,inactive: -0.0327
17,GACAAACA,active: 0.312
18,TGATGCAA,inactive: 0.128
19,ATCTGGTC,inactive: 0.0224
20,ACGTATAT,inactive: 0.164
21,CCCGAAAC,inactive: 0.00339
22,AATGCACT,inactive: 0.108
23,TACAAGCA,active: ≥ 0.384

row,Sequence,PBM E-score
1,CCATTGTA,inactive: 0.174
2,TGCCGACA,inactive: 0.0745
3,ATGCAAAG,inactive: 0.0646
4,AACGCGAC,inactive: 0.0514
5,ATTACCTC,inactive: 0.033
6,GCGTTAGA,inactive: -0.0888
7,AATTAACG,inactive: 0.0962
8,CAAACGCG,inactive: -0.0496
9,ATAGTCAG,inactive: 0.0549
10,GGGCTTCA,inactive: -0.177
11,CCGCTTTC,inactive: -0.204
12,AGCCGCAA,inactive: -0.206
13,GCACCAGA,inactive: -0.107
14,CACTCCTG,inactive: -0.0507
15,ACTGAAGC,inactive: -0.0346
16,TCACGAGA,inactive: 0.0378
17,CGACCTCG,inactive: -0.0567
18,ACAATAAT,inactive: 0.187
19,AAGAACGG,inactive: -0.103
20,AGAAGGCC,inactive: -0.251
